Measured values: the supplement of paper PMC3334620
The full ranking holds about 33,000 sequences; the median of “E-score (-0.5 to 0.5)” is about -0.012, and the highest 2% start at about 0.27. The list shows a part of the results.

The sequences below were run against T1, Vhr1 (UniProt P40522) (assay: PBM E-score (8-mer binding enrichment) (E-score (-0.5 to 0.5)); higher = stronger / more preferred TF binding; most listed sequences are background and not binding sites). Details: protein concentration: 200 nM; construct: GST-full length.
T1 sequence: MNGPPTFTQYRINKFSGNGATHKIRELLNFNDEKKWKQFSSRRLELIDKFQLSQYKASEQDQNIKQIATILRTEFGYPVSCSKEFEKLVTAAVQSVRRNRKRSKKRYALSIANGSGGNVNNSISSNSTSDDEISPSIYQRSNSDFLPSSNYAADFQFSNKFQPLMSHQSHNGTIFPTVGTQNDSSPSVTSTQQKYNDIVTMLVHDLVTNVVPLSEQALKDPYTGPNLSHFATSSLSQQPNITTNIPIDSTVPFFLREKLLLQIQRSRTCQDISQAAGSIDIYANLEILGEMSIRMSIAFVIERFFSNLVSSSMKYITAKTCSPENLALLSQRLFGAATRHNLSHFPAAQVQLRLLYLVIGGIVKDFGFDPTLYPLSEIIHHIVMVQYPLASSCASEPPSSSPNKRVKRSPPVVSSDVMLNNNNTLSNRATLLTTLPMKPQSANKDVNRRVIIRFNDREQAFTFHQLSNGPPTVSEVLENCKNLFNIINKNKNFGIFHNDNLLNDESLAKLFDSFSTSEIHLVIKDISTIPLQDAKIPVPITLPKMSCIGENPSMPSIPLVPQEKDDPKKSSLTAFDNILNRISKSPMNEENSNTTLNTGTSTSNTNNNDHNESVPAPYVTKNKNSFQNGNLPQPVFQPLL
Method in brief: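 Universal all-10-mer Agilent arrays, fresh or stripped once, were converted to double-stranded form by primer extension. GST-tagged yeast transcription factors from PURExpress in vitro transcription/translation, full-length or DNA-binding domain only, were applied at about 100-200 nM and detected with fluorescent anti-GST. After masliner normalisation, the Universal PBM Analysis Suite scored each ungapped eight-base word together with its reverse complement by E-score.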

| Sequence | PBM E-score |
| --- | --- |
| CGGAGCTA | -0.0331 |
| AGGTGGCA | 0.0216 |
| AAGAGATC | -0.249 |
| CATCTACG | 0.141 |
| AGCCCCAC | 0.0558 |
| AAACTCGC | -0.0834 |
| CCACTTAA | -0.283 |
| ACAGTTGC | -0.102 |
| ATTTACCA | -0.0901 |
| CCGCTTCC | 0.0896 |
| AGGTGCTC | -0.245 |
| TACCTCGA | 0.0438 |
| CAGTAACG | -0.0249 |
| TCCCATAA | -0.0361 |
| AACACAGT | -0.0727 |
| GGGCTGGA | -0.0152 |
| CGTTCAAG | -0.247 |
| ACAGTGGC | 0.0105 |
| GCAGAGGA | -0.128 |
| AATGGTGT | 0.169 |
| ATATTTCC | 0.142 |
| CCTGTCCC | -0.0752 |

| Sequence | PBM E-score |
| --- | --- |
| TATGCCGA | 0.129 |
| TGATCGAA | -0.00588 |
| GTCGGCGA | -0.0179 |
| CAGCTCAG | 0.0364 |
| AGGGCGGA | -0.12 |
| ACCAAGTG | -0.0218 |
| AGGGACTC | -0.0891 |
| CGTGTCCA | 0.0984 |
| AGAACCTG | -0.0729 |
| ATGTCGTA | -0.136 |
| GATTAAAC | -0.0636 |
| TAACGATA | 0.104 |
| CCCTTCAC | -0.219 |
| GGTTCGTA | 0.0419 |
| CTGCCGTA | -0.18 |
| GCACCATA | 0.0521 |
| TATCACAA | 0.0919 |
| CTTTTGTC | -0.138 |
| GGTCGAAA | -0.227 |
| GACCCTAC | 0.036 |
| AGGGCCTC | -0.168 |
| CGCGGTAA | 0.0767 |

| Sequence | PBM E-score |
| --- | --- |
| AAGGCTGT | -0.154 |
| GGTACTCA | 0.281 |
| ATAGCGAT | 0.146 |
| TAGAGCAA | -0.16 |
| ATTCGAAG | -0.164 |
| AGCTAAAA | -0.222 |
| ATGGCATG | 0.123 |
| CATTTTAG | -0.0944 |
| CGCTCCAC | -0.125 |
| ACAGCCTC | -0.0546 |
| TCTTTACA | 0.0361 |
| GCTCGGCC | -0.174 |
| GCAAAGCA | -0.15 |
| CTATCGAC | -0.0919 |
| ACAGTACT | 0.0536 |
| CTCCCGTC | 0.0119 |
| AGGGCTCA | 0.0814 |
| AATCGGGA | -0.0677 |
| ACAAATTC | 0.0408 |
| CAATCGGC | -0.0799 |
| CCAAGCTC | -0.145 |
| CACAATAA | 0.0367 |

| Sequence | PBM E-score |
| --- | --- |
| CAGTATTC | -0.0143 |
| TGTGCCAA | 0.127 |
| GCCAAACA | 0.0896 |
| CCTGACAG | -0.0535 |
| GCCGCACC | 0.0812 |
| CTGTACGC | 0.0548 |
| GCCGAAAA | -0.0398 |
| AGTCAACT | 0.144 |
| CTAGTGCA | -0.0181 |
| AAGTTCGA | -0.0835 |
| ATGCCTGC | -0.00581 |
| CTACGTAA | -0.105 |
| ATGGAGGC | -0.19 |
| CATACAGA | 0.153 |
| TATGGCAA | -0.16 |
| CCTATCTC | -0.0188 |
| CTGGAGCA | -0.0948 |
| GACGGCTC | -0.119 |
| AAATACCC | -0.0527 |
| AAGCTTGT | -0.049 |
